Results taken from the supplement of paper PMC4166925.
± gives the standard deviation of the averaged measurements. Whole data set: some 33,000 sequences, median “E-score (dimensionless, -0.5 to 0.5)” near -0.049, cut for the highest 2% near 0.37. The list shows a part of the results.

Test system: T1, PmTbr T-box DNA-binding domain (GST fusion)
T1 sequence: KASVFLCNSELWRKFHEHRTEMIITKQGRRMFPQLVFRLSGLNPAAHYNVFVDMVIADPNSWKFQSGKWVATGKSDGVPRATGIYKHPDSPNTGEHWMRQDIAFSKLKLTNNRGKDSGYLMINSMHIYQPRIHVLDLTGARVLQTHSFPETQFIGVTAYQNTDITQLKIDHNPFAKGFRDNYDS
Test: PBM E-score of 8-mer (E-score (dimensionless, -0.5 to 0.5)); Tbr is Tbrain of the sea star Patiria miniata (Pm) or the sea urchin Strongylocentrotus purpuratus (Sp); higher = stronger binding preference; most listed sequences are background and not binding sites
Settings: the construct has about 5 more residues each side
Procedure, shortened: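 Expression of GST-fused Tbr T-box DNA-binding domains, each holding the full T-box plus roughly five flanking residues, was carried out in BL21 E. coli at 20 °C, with purification by glutathione affinity chromatography. Universal Agilent arrays made double-stranded by primer extension were incubated with the protein at 200 nM in PBS (pH 7.5), then scanned and quantified. All ungapped 8-mers were scored from probe intensities, and each received an enrichment E-score from the Universal PBM Analysis Suite, averaged over duplicate arrays.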

| Sequence | PBM E-score of 8-mer |
| --- | --- |
| CATCTGAA | -0.015 ± 0.048 |
| CGAAACTC | 0.00966 ± 0.025 |
| ATAGACTG | -0.0183 ± 0.043 |
| AGCAGGAA | -0.139 ± 0.021 |
| CCGGAACG | -0.159 ± 0.039 |
| AAGGATCT | -0.189 ± 0.037 |
| CTGTGATA | 0.2528 ± 0.0022 |
| ATCCGAAT | -0.36 ± 0.007 |
| ACCTCTAA | -0.0425 ± 0.028 |
| AGGCTGGG | -0.18 ± 0.069 |
| AATACATG | -0.152 ± 0.094 |
| CGATATTC | 0.0118 ± 0.021 |
| ACGACCAG | -0.0759 ± 0.043 |
| TGTATTAA | -0.0716 ± 0.098 |
| CTGTGGTC | -0.178 ± 0.13 |
| AGCATTAA | -0.0919 ± 0.027 |
| ACGCGCGC | 0.157 ± 0.033 |
| AAACCCCA | -0.268 ± 0.039 |
| CTATCAGA | -0.102 ± 0.0099 |
| GAGTCAAA | -0.15 ± 0.029 |
| AGCTAAGA | 0.0667 ± 0.1 |
| GCCGACCC | -0.256 ± 0.038 |
| ACTGTTGC | 0.0455 ± 0.0063 |
| ACGTCATC | 0.115 ± 0.019 |

| Sequence | PBM E-score of 8-mer |
| --- | --- |
| CATTCTCG | 0.171 ± 0.048 |
| CCATGGGC | -0.149 ± 0.018 |
| ATTGATAC | 0.0782 ± 0.11 |
| CACATAAA | 0.117 ± 0.014 |
| CAACACTC | 0.339 ± 0.0075 |
| GGTGTGAC | 0.4864 ± 0.0033 |
| GCCGTGTA | -0.112 ± 0.015 |
| CGCCCATA | -0.0434 ± 0.00045 |
| TAGTCAGA | -0.0794 ± 0.018 |
| TTGCCCAA | -0.191 ± 0.041 |
| GTCGAGAC | -0.137 ± 0.02 |
| CGAGCGAA | -0.0807 ± 0.16 |
| CGTCGTAG | -0.15 ± 0.043 |
| CTGAACTA | -0.226 ± 0.054 |
| CCTTGACC | -0.13 ± 0.041 |
| GGCGAGAA | 0.339 ± 0.005 |
| AGTCCGTG | -0.179 ± 0.026 |
| GAGGGTCC | -0.34186 ± 2.1e-05 |
| AACTCATG | -0.206 ± 0.012 |
| ACGGCACG | 0.0779 ± 0.012 |
| CGTATGTA | -0.0635 ± 0.046 |
| TACTCACA | 0.264 ± 0.0045 |
| AATTGCAG | 0.0429 ± 0.013 |
| ACCCAGCC | -0.112 ± 0.11 |

| Sequence | PBM E-score of 8-mer |
| --- | --- |
| CATGATCC | -0.109 ± 0.054 |
| GCGCCGAA | 0.151 ± 0.0066 |
| GGCGGTCA | -0.206 ± 0.086 |
| TAGTTAAA | -0.253 ± 0.0031 |
| CCTACCTA | -0.162 ± 0.092 |
| AAAGCCGA | -0.0961 ± 0.0053 |
| CCGTGGGA | -0.179 ± 0.082 |
| CAGAGCCC | -0.118 ± 0.077 |
| AGATGTTA | 0.0329 ± 0.035 |
| TGAATTCA | 0.00624 ± 0.11 |
| AAAAAGTT | 0.111 ± 0.092 |
| GGACATCA | -0.0324 ± 0.05 |
| CAGATACG | -0.0625 ± 0.037 |
| AAACGCCT | 0.1217 ± 0.0004 |
| AGATATGA | -0.00711 ± 0.082 |
| GATCGTGA | 0.164 ± 0.0057 |
| CCACGTCA | 0.0883 ± 0.058 |
| CGCTCAGC | -0.213 ± 0.0023 |
| CGAGTGAA | 0.0674 ± 0.029 |
| CGTCTGCA | 0.025 ± 0.029 |
| GAAATGTA | -0.116 ± 0.024 |
| ATCTAGAC | -0.205 ± 0.0034 |
| CTCGAAGA | -0.159 ± 0.046 |
| GACTTCCA | -0.2 ± 0.014 |

| Sequence | PBM E-score of 8-mer |
| --- | --- |
| CATCTCAA | -0.156 ± 0.035 |
| GTCTGAGA | -0.0929 ± 0.061 |
| AAATCTCA | 0.161 ± 0.034 |
| TGACCGCA | -0.192 ± 0.044 |
| CAGAATAC | -0.145 ± 0.0078 |
| CCCCGCAC | 0.168 ± 0.038 |
| AATGTAAC | 0.0157 ± 0.11 |
| AGCAAATC | 0.00607 ± 0.054 |
| GGAGAGGA | -0.1 ± 0.0036 |
| GAGGGTTA | -0.0685 ± 0.061 |
| TAAATGTA | -0.114 ± 0.0084 |
| AGGGTCAC | 0.0889 ± 0.0067 |
| CCAATCCG | -0.0014 ± 0.016 |
| AATGTGCG | 0.27 ± 0.012 |
| ACAAAGGC | -0.106 ± 0.089 |
| AGAACATC | -0.098 ± 0.021 |
| GGCACTGA | -0.0347 ± 0.026 |
| AGCTTCTG | -0.218 ± 0.059 |
| CTAACTTC | -0.194 ± 0.036 |
| AACGTGCC | 0.14 ± 0.005 |
| GCTTCAAA | 0.0832 ± 0.024 |
| GGACCTCA | -0.194 ± 0.042 |
